Measurements reported in PubChem BioAssay AID1159614 (National Center for Advancing Translational Sciences (NCATS), 2016).
Out of some 45,000 compounds screened, about 65 (0.1%) were called active. Calls follow the shape of the dose curve; as a rule, active = well fitted activation curve with a large enough effect; inconclusive = small, poorly fitted or top-dose-only effect; inactive = no such curve, though single readings can be large or run the other way. The list shows a part of the results.

target: Galactocerebrosidase (Homo sapiens) (UniProt P54803); experiment: A Novel Cell-Based Assay to Identify Small Molecules for B -Galactocerebrosidase; conditions: 145M-Twi-hGALC-G270D cells, HMU-beta-Gal fluorescence, 48 h; series mostly up to 57.5 µM; activation: at the top concentration; also: 0% is about no effect; nearly all actives have a fitted effect of over 65% in size
Summary of the method: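 qHTS, 1536-well; 145M-Twi-hGALC-G270D cells (WT line also made) in DMEM/F12 + 10% FBS; compound incubation on live cells; HMU-β-gal 0.1 mM final, pH 5.2, NaTC; carbonate stop; fluorescence increase = enhanced residual activity.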

Sequence of UniProt P54803 (P54803 whole entry, looked up): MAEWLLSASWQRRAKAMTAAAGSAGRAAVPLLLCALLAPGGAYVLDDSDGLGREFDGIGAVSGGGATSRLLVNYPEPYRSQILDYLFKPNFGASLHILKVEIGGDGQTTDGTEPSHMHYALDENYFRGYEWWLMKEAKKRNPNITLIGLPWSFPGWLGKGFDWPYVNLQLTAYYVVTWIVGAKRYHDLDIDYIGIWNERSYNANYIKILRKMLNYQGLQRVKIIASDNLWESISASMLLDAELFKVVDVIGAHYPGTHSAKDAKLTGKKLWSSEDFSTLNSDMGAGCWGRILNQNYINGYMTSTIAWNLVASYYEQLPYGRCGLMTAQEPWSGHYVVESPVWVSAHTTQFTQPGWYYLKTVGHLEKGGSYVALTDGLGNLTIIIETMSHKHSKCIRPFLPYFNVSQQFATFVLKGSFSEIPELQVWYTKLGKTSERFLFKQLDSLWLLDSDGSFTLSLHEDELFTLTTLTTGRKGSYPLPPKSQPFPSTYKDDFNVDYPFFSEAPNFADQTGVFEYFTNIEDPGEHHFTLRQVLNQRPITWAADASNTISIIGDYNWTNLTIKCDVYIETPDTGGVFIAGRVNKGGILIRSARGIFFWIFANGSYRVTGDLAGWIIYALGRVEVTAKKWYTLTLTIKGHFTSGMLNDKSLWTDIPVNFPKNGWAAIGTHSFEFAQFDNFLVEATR

activation, inactive:
CCOC(=O)N1CCC(NC(=O)c2ccc3c(c2)N(Cc2ccc(Cl)cc2)C(=O)c2ccccc2S3=O)CC1 (stereo unspecified) -10.8%
Cc1cccc(N(C)S(=O)(=O)c2nnc(NC(=O)C3CCCCC3)s2)c1 -14.9%
O=C(CSc1nc2ccccc2nc1Cc1ccccc1)N1CCCc2ccccc21 -6.88%
CCOC(N)=O -20.3%
COc1cc(-c2ccno2)ccc1S(=O)(=O)N1CCN(c2ccc(F)cc2)CC1 -23.3%
CCc1ccc2occ(CC(=O)N(Cc3ccc(N(C)C)cc3)C3CCS(=O)(=O)C3)c2c1 (stereo unspecified) -15.6%
CCOC(=O)c1cccc(NC(=O)c2sc3nc[nH]c(=O)c3c2C)c1 -12.6%
CCc1ccc(-c2nc(CSCC(=O)NCc3ccc(C)cc3)c(C)o2)cc1 -19.6%
COc1ccc(CN2CCN(S(=O)(=O)c3ccc(NC(C)=O)cc3)CC2)c(OC)c1OC -22.2%
CC(=O)c1cc2c(cc1N/C(=N/S(=O)(=O)c1ccc(F)cc1)c1ccccc1)OCO2 -11.8%
CCN(Cc1ccccc1)C(=O)CCS(=O)(=O)c1ccc2c(c1)CCN2C(C)=O -3.11%
CCc1ccc(NC(=O)c2sc3nc(C)cc(C)c3c2NC(=O)c2ccccc2OC)cc1 -17.2%
O=C(NC1CCCCC1)c1ccc2c(c1)N(Cc1cccc(Cl)c1)C(=O)c1ccccc1S2=O (stereo unspecified) -13.6%
CCc1ccc(NC(=O)CC2C(=O)N(c3ccc(Cl)cc3)C(=O)N2C2CCCC2)cc1 (stereo unspecified) -20.3%
COc1cc(OC)c(NC(=O)CSc2cc(=O)n(C)c3ccc(Cl)cc23)cc1Cl -12.1%
CCc1c(CN2CCN(c3cccc(C)c3)C(C)C2)csc1C (stereo unspecified) -5.34%
O=C(Cn1ncc2c3ccccc3n(Cc3cccc(Cl)c3)c2c1=O)N1CCCCCC1 -13.1%
CCOc1ccc(CCNC(=O)Cn2c(C)c3cnn(-c4ccccc4)c(=O)c3c2C)cc1 -13.9%
O=C(NCc1ccco1)c1ccc2c(c1)N(Cc1cccc(Cl)c1)C(=O)c1ccccc1S2=O (stereo unspecified) -3.02%
Cc1ccc2[nH]c3c(=O)n(CC(=O)N4CCCC(C)C4)ncc3c2c1 (stereo unspecified) -9.27%
CC(CCCc1ccccc1)NC(=O)c1nn(-c2ccc(Cl)cc2)nc1CO (stereo unspecified) -8.3%
CC(C)c1cccc(C(C)C)c1NS(=O)(=O)c1cccs1 -12.7%
Nc1ncc(S(=O)(=O)NCc2ccc(F)cc2)cn1 3%
O=C(NC1CC(=O)N(c2ccccc2)C1)c1ccc(S(=O)(=O)N2CCCC2)cc1 (stereo unspecified) -10.9%
CC(=O)c1cccc(Nc2nc(-c3ccccc3Cl)nc3ccccc23)c1 -2.16%
Cc1ccccc1Cn1c2ccccc2c2cnn(CC(=O)NCCc3ccc(Cl)cc3)c(=O)c21 -14.7%
Cc1cccc2sc(N(Cc3cccnc3)C(=O)COc3ccccc3)nc12 -6.89%
CCOc1ccccc1NC(=O)c1cc2c(=O)[nH]c3ccccc3c2s1 -11.5%
Cc1cc(C)c2c(-n3cccc3)c(C(=O)NCC(C)c3ccccc3)sc2n1 (stereo unspecified) -10.9%
COc1ccc(CNC(=O)C2CCN(S(=O)(=O)c3ccc4c(ccn4C)c3)CC2)cc1 -21.2%
CCOC(=O)c1c(C)[nH]c(C)c1S(=O)(=O)NCC(=O)N1CCN(c2ccccc2F)CC1 -14.4%
COc1ccc(-c2nc3ccccc3s2)cc1NC(C)=O -28.1%
COc1ccc(C(=O)CCC(=O)Nc2cc(C)ccc2C)cc1 -21.4%
O=C1c2cccc(O)c2C(=O)c2c(O)cccc21 -10.8%
CCc1c(C)c(C#N)c2nc3ccccc3n2c1Nc1cccc(C(F)(F)F)c1 -9.54%
COc1ccc(-c2nc(S(=O)(=O)c3ccc(C)cc3)c(NCc3ccccc3)o2)cc1 -19.8%
Cn1cc(-c2cc3n(n2)CCC(=O)N3CCCC(=O)Nc2ccccc2F)c2ccccc21 -12.3%
Cc1cc(C)c2c(=O)c3c(oc2c1)C(=O)N(Cc1ccco1)C3c1ccccc1F (stereo unspecified) -5.59%
CCc1ccc(NC(=O)c2ccc(F)c(S(=O)(=O)N3CCN(c4cc(C)ccc4C)CC3)c2)cc1 -6.16%
Cc1noc2ncnc(N3CCCC(C(=O)Nc4cccc(C(F)(F)F)c4)C3)c12 (stereo unspecified) -10.8%
CC(C)c1ccc(NC(=O)Cn2c(=O)oc3cc(S(=O)(=O)N4CCCC4)ccc32)cc1 -22.1%
CC(C)c1ccc(NC(=O)C(Cc2ccccc2)NS(=O)(=O)c2ccc3c(c2)oc(=O)n3C)cc1 (stereo unspecified) -18%
Cc1noc(-c2ccc(-c3noc(-c4ccc(C(F)(F)F)cc4)n3)cc2)n1 -13.8%
O=C(NCCCN1CCN(c2ccc(F)cc2)CC1)c1ccc2nc(CCc3ccccc3)oc2c1 -7.58%
COc1ccc(Nc2nc(-c3ccccc3F)nc3ccccc23)cc1OC -47.7%
CCc1cccc(NC(=O)C(CC)n2nc(C)c3sc4ccccc4c3c2=O)c1 (stereo unspecified) -5.81%
COc1ccc(NC(=O)c2sc3nc4c(cc3c2N)CN(Cc2ccccc2)CC4)cc1OC -19.9%
Cc1c(C(=O)NCc2ccccc2Br)oc2ccc3c(c12)C(=O)CC(C)(C)O3 -11.1%
COc1ccc(NC(=O)CCc2nnc3n(CC(C)C)c(=O)c4ccccc4n23)cc1OC -13.2%
CC(C)(C)OC(=O)N1CCC(c2c(C(=O)N3CCN(c4ncccn4)CC3)cnn2-c2cccc(F)c2)CC1 -1.07%
Cc1ccc(C)c(S(=O)(=O)c2nnn3c2nc(N2CCCCC2)c2sccc23)c1 -9.54%
CCOc1ccc(CC(=O)NCc2ccc3c(c2)CCN3C(C)=O)cc1OCC -7.36%
CN(C)CCNC(=O)Cn1nc(N2CCN(c3ccccc3)CC2)ccc1=O 3.86%
COc1ccc(NC(=O)c2ccc3c(c2)CCN3S(=O)(=O)c2ccccc2)cc1 -2.73%
COc1cc2c(cc1OC)n(CC(=O)c1ccc(C)cc1)c(=O)n1nc(CCn3nc(C)cc3C)nc21 -14.2%
Cc1ccc(O)c(NC(=O)COCc2cc(-c3ccco3)on2)c1 -2.67%
CC(=O)Nc1nonc1-c1nnc(SCc2ccccc2Cl)n1C -5.92%
COc1ccc(OC)c(NC(=O)Cn2cc(C(=O)c3ccc(Cl)cc3)c(=O)c3cc(OC)ccc32)c1 -16.1%
CCc1ccc2occ(CC(=O)Nc3ccc(C)c(C)c3)c2c1 17.4%
CCOC(=O)c1ccccc1NC(=O)c1nn(-c2ccc(OC)c(Cl)c2)c(=O)c2c1c1ccccc1n2C -13.7%
Cc1ccc(CNC(=O)CCCc2nnc3n(CC(C)C)c(=O)c4sccc4n23)cc1 -15%
